The list shows a part of the results.

The test system of one assay is HSkMC. The assay is described as follows: cytotoxicity call (relative viability < 0.9). The following applies: 10 µM.
The next assay relates to S. aureus RN4220. As to the kind of experiment: growth inhibition call (relative growth <= 0.2). As to conditions: 50 µM.

Turning to `COc1ccc([C@@H](N)c2ccncc2)cc1`, the cytotoxicity call in the assay with HSkMC was “inactive”. Further, the growth inhibition call in the assay with S. aureus RN4220 was “inactive”.
In the case of `Cc1noc(C)c1S(=O)(=O)Nc1ccc2c(c1)C(=O)N([C@@H](C)CO)C[C@H](C)[C@@H](CN(C)C(=O)NC1CCCCC1)O2`, the cytotoxicity call with HSkMC is “inactive”. Also, the growth inhibition call with S. aureus RN4220 was “inactive”.
For `Cn1c(=O)c2[nH]c(C3CCCC3)nc2n(C)c1=O`, the cytotoxicity call with HSkMC was “inactive”. Moreover, the growth inhibition call in the assay on S. aureus RN4220 is “inactive”.
Consider `C[C@@H]1CCCCO[C@H](CN(C)Cc2ccc(C(=O)O)cc2)[C@H](C)CN([C@H](C)CO)C(=O)c2cc(NC(=O)Nc3cccc4ccccc34)ccc2O1`, for which the cytotoxicity call in the assay with HSkMC is “inactive”. Also, the growth inhibition call in the assay with S. aureus RN4220 is “inactive”.
In the case of `COC(=O)[C@@H](N)Cc1ccc(O)c(O)c1`, the cytotoxicity call with HSkMC was “inactive”. For the same compound, the growth inhibition call in the assay on S. aureus RN4220 is “inactive”.
Take `C[C@H](CO)N1C[C@H](C)[C@@H](CN(C)C(=O)Nc2ccc3c(c2)OCO3)Oc2ccc(NC(=O)CCCN(C)C)cc2C1=O`: the cytotoxicity call in the assay with HSkMC was “inactive”. In addition, in the assay with S. aureus RN4220, the growth inhibition call was “inactive”.
For `C[C@@H]1CN([C@@H](C)CO)C(=O)CCCn2nncc2CO[C@H]1CN(C)C(=O)Nc1ccc(C(C)(C)C)cc1`, in the assay with HSkMC, the cytotoxicity call was “inactive”. Also, the growth inhibition call in the assay on S. aureus RN4220 is “inactive”.
As to `O=C(O)[C@H]1CCCC[C@@H]1C(=O)N1CCOCC1`, the cytotoxicity call in the assay on HSkMC is “inactive”. The growth inhibition call with S. aureus RN4220 was “inactive”.
With `C[C@@H]1CCCCO[C@@H](CN(C)Cc2ccc(C(F)(F)F)cc2)[C@@H](C)CN([C@@H](C)CO)C(=O)c2cc(NC(=O)Nc3ccccc3)ccc2O1`, in the assay on HSkMC, the cytotoxicity call is “inactive”. Further, the growth inhibition call in the assay with S. aureus RN4220 is “inactive”.
As for `C[C@@H]1CN([C@H](C)CO)C(=O)c2cc(NS(=O)(=O)c3ccc(F)cc3)ccc2O[C@H]1CN(C)S(=O)(=O)c1ccccc1`, the cytotoxicity call in the assay on HSkMC is “inactive”. Moreover, the growth inhibition call with S. aureus RN4220 is “inactive”.
`O=C1C(NS(=O)(=O)c2ccc(Br)cc2)=C(c2ccc(OC(F)(F)F)cc2)C(=O)c2ccccc21`: in the assay on HSkMC, the cytotoxicity call is “inactive”. In addition, the growth inhibition call with S. aureus RN4220 is “inactive”.
As for `C[C@H]1CCCCO[C@@H](CN(C)S(=O)(=O)c2ccccc2)[C@@H](C)CN([C@@H](C)CO)C(=O)c2cc(NC(=O)C3CCCCC3)ccc2O1`, the cytotoxicity call in the assay on HSkMC is “inactive”. Moreover, the growth inhibition call in the assay on S. aureus RN4220 was “inactive”.
Take `NCCCC[C@H](NC(=O)[C@@H]1CCCN1C(=O)[C@@H]1CSSC[C@H](N)C(=O)N[C@@H](Cc2ccc(O)cc2)C(=O)N[C@@H](Cc2ccccc2)C(=O)N[C@@H](CCC(N)=O)C(=O)N[C@@H](CC(N)=O)C(=O)N1)C(=O)NCC(N)=O`: the cytotoxicity call in the assay on HSkMC was “inactive”. Also, the growth inhibition call in the assay with S. aureus RN4220 is “inactive”.
With `C[C@@H]1CN([C@@H](C)CO)C(=O)c2ccccc2-c2ccccc2CO[C@@H]1CN(C)Cc1cccc(C(F)(F)F)c1`, the cytotoxicity call in the assay with HSkMC is “active”. Also, the growth inhibition call in the assay with S. aureus RN4220 is “inactive”.
For `CNC(=O)C(=O)NC[C@H]1CCCN1S(=O)(=O)c1cccs1`, the cytotoxicity call with HSkMC is “inactive”. In the assay with S. aureus RN4220, the growth inhibition call is “inactive”.
As for `COc1ccccc1C(=O)Nc1ccc2c(c1)C(=O)N(C)[C@@H]1CC[C@H](CC(=O)NCCc3ccncc3)O[C@H]1CO2`, the cytotoxicity call in the assay on HSkMC was “inactive”. Further, the growth inhibition call with S. aureus RN4220 was “inactive”.
Turning to `O=C(C[C@@H]1C[C@H]2c3cc(NC(=O)Nc4ccccc4)ccc3O[C@H]2[C@H](CO)O1)NCCN1CCCCC1`, the cytotoxicity call in the assay with HSkMC was “inactive”. Further, in the assay on S. aureus RN4220, the growth inhibition call was “inactive”.
On to `CC(C)c1ccc2c(ccc[n+]2C)c1`, for which the cytotoxicity call with HSkMC is “inactive”. Besides, the growth inhibition call in the assay with S. aureus RN4220 is “inactive”.
For `COc1cccc(NC(=O)N2C[C@@H](O)COC[C@@H]3O[C@H](CC(=O)NCCCN4CCOCC4)CC[C@H]32)c1`, in the assay with HSkMC, the cytotoxicity call was “inactive”. Also, the growth inhibition call in the assay with S. aureus RN4220 was “inactive”.
Take `Cc1noc(C)c1S(=O)(=O)N(C)C[C@@H]1Oc2ccc(NC(=O)Cn3cnnn3)cc2CC(=O)N([C@@H](C)CO)C[C@@H]1C`: the cytotoxicity call in the assay on HSkMC was “inactive”. Moreover, the growth inhibition call in the assay with S. aureus RN4220 was “inactive”.
For `CC(C)N1C[C@H](C)[C@@H](CN(C)Cc2ccc(Oc3ccccc3)cc2)Oc2c(NC(=O)c3cccnc3)cccc2C1=O`, the cytotoxicity call with HSkMC is “inactive”. Further, in the assay with S. aureus RN4220, the growth inhibition call is “inactive”.
On to `C[C@@H]1CCCCO[C@H](CN(C)S(=O)(=O)c2ccccc2)[C@H](C)CN([C@@H](C)CO)C(=O)c2cc(NC(=O)NC3CCCCC3)ccc2O1`, for which the cytotoxicity call in the assay on HSkMC is “inactive”. For the same compound, the growth inhibition call in the assay on S. aureus RN4220 is “inactive”.
In the case of `CN1C[C@@H]2CN(C(=O)[C@H]3CCOC3)C[C@H]2C1=O`, the cytotoxicity call in the assay with HSkMC was “inactive”. Also, the growth inhibition call in the assay with S. aureus RN4220 was “inactive”.
In the case of `CC(C)[Si](C#CCCc1ccccc1)(O[C@H](c1ccccc1)c1cn(Cc2ccccc2)nn1)C(C)C`, the cytotoxicity call in the assay with HSkMC was “inactive”. Besides, the growth inhibition call in the assay with S. aureus RN4220 was “inactive”.
As for `c1cnc2ccc3ncccc3c2c1`, in the assay on HSkMC, the cytotoxicity call was “inactive”. In addition, in the assay on S. aureus RN4220, the growth inhibition call is “inactive”.
Turning to `O=C(C[C@@H]1C[C@@H]2c3cc(NC(=O)C4CCOCC4)ccc3O[C@@H]2[C@@H](CO)O1)NCc1cc(F)ccc1F`, in the assay with HSkMC, the cytotoxicity call is “inactive”. Besides, in the assay with S. aureus RN4220, the growth inhibition call was “inactive”.
As to `C[C@H]1CN([C@@H](C)CO)C(=O)c2cccc(NC(=O)c3nc4ccccc4s3)c2O[C@@H]1CN(C)Cc1ccc(C(=O)Nc2ccccc2N)cc1`, the cytotoxicity call in the assay with HSkMC was “inactive”. Also, the growth inhibition call in the assay with S. aureus RN4220 is “inactive”.
In the case of `C[C@H]1CN([C@@H](C)CO)C(=O)Cc2cc(NC(=O)NC3CCCCC3)ccc2O[C@@H]1CN(C)Cc1ccc(Oc2ccccc2)cc1`, the cytotoxicity call in the assay with HSkMC was “inactive”. Besides, the growth inhibition call in the assay with S. aureus RN4220 is “inactive”.
Consider `CC(C)NC(=O)N(C)C[C@@H]1Oc2ccc(NC(=O)CCCN(C)C)cc2C(=O)N([C@H](C)CO)C[C@@H]1C`, for which the cytotoxicity call in the assay on HSkMC (human skeletal muscle cells) was “inactive”. In addition, in the assay with S. aureus RN4220, the growth inhibition call was “inactive”.

The record behind these values is the antibiotic and cytotoxicity screens of Wong et al. (2023).
